In all, about 190,000 compounds went through this assay and about 520 (0.27%) were called active. The inconclusive results got no clear call from the source; some entries with a clear call stand among them for comparison.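 How the source made its calls: active means GTP binding activity at least 20 points away from the 100% control level, either lower or higher; inconclusive means compound flagged as likely green fluorescent, judged across all proteins; inactive means the rest.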
molecular target: Ras-related C3 botulinum toxin substrate 1 (Homo sapiens) (UniProt P63000); assay: wildtype Rac1 GTP binding modulators, primary screen, biochemical, GST-Rac1 beads, flow cytometry, multiplex (AID 757); conditions: fluorescent GTP binding, at 10 µM, actives lie on both sides, 0 = cold GTP competed, 100 = untreated

SMILES | GTP binding activity (% of control)
CCOc1ccc(C(C(=O)Nc2ccc(F)cc2)N(C(=O)Cn2nnc3ccccc32)C2CC2)cc1 (stereo not drawn) | inconclusive: 102%
COc1cc(C)c(S(=O)(=O)N2CCN(C)CC2)cc1C | inconclusive: 106%
COc1ccc2cc3cc(C(=O)NCCCN4CCOCC4)oc3nc2c1 | inconclusive: 92%
O=C(CCCN1C(=O)c2cccc3cccc(c23)C1=O)N1CCN(c2ccc(F)cc2)CC1 | inconclusive: 94%
Cn1c(N2CCN(c3ccccn3)CC2)nc2c1c(=O)n(Cc1ccc(Cl)cc1)c(=O)n2C | inconclusive: 92%
CCc1nnc(NC(=O)c2cc(S(=O)(=O)N3CCOCC3)ccc2N2CCCCC2)s1 | inconclusive: 257%
COc1ccc(-c2noc(CCC(=O)NCC3CCN(Cc4cccc(C)c4)CC3)n2)cc1 | inconclusive: 107%
CC(C)(C)C(=O)c1sc2nc(-c3cccs3)cc(C(F)(F)F)c2c1N | inconclusive: 124%
O=C(Nc1nc(-c2cccnc2)cs1)c1ccccc1F | inconclusive: 96%
O=C(C(=O)N1CCCC1CO)N1CCCC1CO (stereo not drawn) | inactive: 99%
CCNC(=S)Nc1cccc(F)c1C | inactive: 99%
O=C(NC(=S)Nc1ccccc1N1CCOCC1)c1sc2ccccc2c1Cl | inconclusive: 106%
CC1(C)CC(=O)C/C(=N\NC(=O)c2cccs2)C1 | inconclusive: 106%
Cc1cccc2cc(C#N)c(NCCNS(=O)(=O)c3ccc4c(c3)OCCO4)nc12 | inconclusive: 90%
O=C(c1ccco1)N1CCN(C(=O)c2cnn3c2NC(c2cccs2)CC3C(F)(F)F)CC1 (stereo not drawn) | inconclusive: 105%
CCC(C)Sc1nc2c(c(=O)[nH]c(=O)n2C)n1C (stereo not drawn) | inactive: 105%
Cc1cc2c(c(Sc3ccccc3)n1)C(=O)OC2 | inconclusive: 109%
CC(=O)c1ccc2c(c1)CC(C)C(=O)N2C (stereo not drawn) | inactive: 104%
CCOc1cc(/C=N/Nc2nncc(-c3ccccc3)n2)ccc1O | active: 74%
c1ccc(-n2nnnc2OCCOc2nnnn2-c2ccccc2)cc1 | inconclusive: 98%
CC(=O)Nc1nc(CC(C)C)cc2c1c(=O)oc1ccccc12 | inconclusive: 87%
NC1=NC(=O)/C(=C/c2cn(CCC(=O)O)nc2-c2ccc(Cl)cc2)S1 | active: 77%
Cc1cccnc1NC(=O)CSc1nnc(Cc2ccccc2)o1 | inactive: 106%
CN(C)c1ccc(C(CNS(=O)(=O)c2ccc3ccccc3c2)c2c[nH]c3ccccc23)cc1 (stereo not drawn) | inconclusive: 96%

SMILES | GTP binding activity (% of control)
COc1ccc(-c2csc(N3CCOCC3)n2)cc1OC | inconclusive: 106%
O=C(CNC(=O)c1ccccc1)Nc1cccc(C(F)(F)F)c1 | inconclusive: 358%
Cc1c(N=Cc2ccc(-c3ccc(Cl)cc3)o2)c(=O)n(-c2ccccc2)n1C | inconclusive: 91%
S=c1[nH]c2ccccc2o1 | inactive: 98%
CC(C)C(=O)N1C2CCC1CC(O)(c1ccc(F)cc1)C2 (stereo not drawn) | inconclusive: 91%
CCn1cc(/C=N/NC(=O)COc2cccc3cccnc23)c2ccccc21 | inactive: 106%
CC(Oc1ccc(Cl)cc1Cl)c1nc(-c2ccc(NC(=O)c3ccco3)cc2)no1 (stereo not drawn) | inconclusive: 105%
Cc1cc(NC(=O)c2sccc2C)n(-c2nc3ccccc3[nH]2)n1 | inconclusive: 84%
COc1cccc(C2CC(c3ccccc3OC)n3ncnc3N2)c1 (stereo not drawn) | inactive: 107%
COc1ccc(N2CCN(C(=O)CSc3nnc(NC(=O)C4CCC4)s3)CC2)cc1 | inactive: 103%
O=C(c1cc2cc([N+](=O)[O-])ccc2s1)N1CCCCC1 | inactive: 100%
CCCCN(CC)c1nc(N)c(C#N)c(CC#N)c1C#N | inconclusive: 98%
COc1ccc(CN(C(=O)c2ccc(-c3ccccc3)[nH]2)C(C(=O)NCC2CCCO2)c2ccc(C)o2)cc1 (stereo not drawn) | inactive: 106%
Cn1nc(C(F)(F)F)c(CO)c1Sc1ccc(F)cc1 | inactive: 98%
O=C1NCCCC1C(=O)Nc1ccccn1 (stereo not drawn) | inconclusive: 109%
CCc1ccc(NC(=O)c2cc3c(C)nc4ccccc4c3o2)cc1 | active: 75%
CCOC(=O)c1ccc(N2CCN(c3ccccc3F)CC2)c(NC(=O)Nc2ccccc2)c1 | inconclusive: 101%
COc1cccc(NC(=O)CC2(CC(=O)O)CCCC2)c1 | inconclusive: 94%
Oc1c(Br)cc(C=Nc2ccc3nc(-c4ccccc4)[nH]c3c2)c(O)c1Br | inconclusive: 88%
COc1ccc(CCNC(=O)C2CC(=O)N(c3ccc(Br)cc3)C2)cc1OC (stereo not drawn) | inconclusive: 96%
Cn1c(C(=O)N2CCN(C(=O)c3ccco3)CC2)cc2c(=O)n3ccccc3nc21 | inconclusive: 88%
Cc1cc(C)c(S(C)(=O)=O)c(NN)n1 | inconclusive: 106%
O=C(O)c1ccccc1Sc1ncnc2sc3c(c12)CCC3 | active: 123% [activator]
Cc1nc2ccc(NC(=O)c3ccc4ccccc4n3)cc2s1 | inconclusive: 93%

SMILES | GTP binding activity (% of control)
CCC(=O)NC(C)C(c1cccs1)N1CCN(c2ccccc2)CC1 (stereo not drawn) | inconclusive: 106%
O=C(NCc1ccco1)c1cccn2c(=O)c3c4c(sc3nc12)CCCC4 | inconclusive: 74%
Cc1c(C(=O)Nc2ccccc2)cn2c(nc3ccccc32)c1C#N | inconclusive: 89%
CS(=O)(=O)Nc1cccc(C2=NN(S(=O)(=O)c3ccccc3)C(c3cccs3)C2)c1 (stereo not drawn) | inconclusive: 112%
CCOc1cccc(NC(=O)C2CC(=O)N(C)C(=Nc3cccc(F)c3)S2)c1 (stereo not drawn) | inactive: 89%
O=C(Nc1nc2ccccc2n1CCN1CCCCC1)C1CCCCC1 | inconclusive: 101%
CCOc1ccccc1C1C(C(=O)OC)=C(N)OC2=C1C(=O)CCC2 (stereo not drawn) | active: 133% [activator]
Cc1ccc(C(=O)N/N=C2\CC3CC=CC23)c(C)c1 (stereo not drawn) | inactive: 98%
Cc1nc(Nc2ccc(C(=O)O)cc2)nc(Nc2ccc(C(=O)O)cc2)c1[N+](=O)[O-] | active: 62%
CCNC(=O)CC1C(=O)N(c2ccc(F)cc2)C(=S)N1CCc1ccncc1 (stereo not drawn) | inconclusive: 102%
O=C(c1ccco1)N1CCN(S(=O)(=O)c2ccccc2[N+](=O)[O-])CC1 | inactive: 98%
Cc1cc(C)nc(NS(=O)(=O)c2ccc(N/C=C\C(=O)c3ccc(Cl)cc3)cc2)n1 | inconclusive: 101%
Cc1ccc(-n2nnnc2CN2CCCCC2)cc1 | inactive: 97%
CN1CCN(C(=O)C2=C[C@H](c3csc4ccccc34)C[C@H](OCCCCO)O2)CC1 | inactive: 97%
Cc1ccc(-n2nc3c([n+]2[O-])CCc2c-3no[n+]2[O-])cc1 | inconclusive: 103%
Cc1cc(C)cc(N(C(C)C(=O)N2CCOCC2)S(C)(=O)=O)c1 (stereo not drawn) | inconclusive: 95%
COc1cc(Cl)cc(C(=O)O)c1OCC(=O)O | inactive: 94%
CCN(CC)S(=O)(=O)c1ccc2oc(C(=O)N3CCc4ccccc4C3)c(C)c2c1 | active: 128% [activator]
Cc1nn2c(-c3cccc(NC(=O)c4ccco4)c3)nnc2c2ccccc12 | inconclusive: 83%
O=C(CCc1nc2ccccc2c(=O)[nH]1)Nc1ccc(N2CCCCC2)cc1 | inconclusive: 96%
COc1ccc2cc(C(C)=O)c(=O)oc2c1 | inconclusive: 103%
Cc1ccc(Nc2nc(CSc3nnnn3-c3ccccc3)cs2)cc1 | inconclusive: 89%
C/C(=N/NC(=O)CNc1ccc(Cl)cc1C)c1ccc(C)cc1 | inactive: 101%
Cn1nccc1C(=O)Oc1ccc(/C=N/NC(=O)c2ccccc2O)cc1 | inactive: 90%

SMILES | GTP binding activity (% of control)
CCN1C(=O)/C(=C/C=C2/Sc3ccc4ccccc4c3N2CCO)SC1=S | active: 75%
O=C1C=C(Nc2ccc(Cl)cc2)CC(c2ccccc2)C1 (stereo not drawn) | inactive: 101%
COc1ccccc1Nc1nc(-c2c(C)nc3ncccn23)cs1 | active: 63%
Cc1cc2ncn(CCC(=O)NC3CCCC3)c2cc1C | inactive: 96%
Cc1ccc(C2CC(c3cccs3)n3nc(N)nc3N2)cc1 (stereo not drawn) | inactive: 103%
COc1ccc(-c2cc(=O)c(C(=O)c3ccc(C)cc3)n[nH]2)cc1 | active: 121% [activator]
COc1ccc(OC)c(NS(=O)(=O)Cc2ccccc2)c1 | inconclusive: 88%
CN(C)c1ccnc2sc(C(=O)NCc3ccccc3)c(N)c12 | inconclusive: 88%
Cc1cc(OCCCN2CCN(Cc3ccccc3)CC2)ccc1[N+](=O)[O-] | inactive: 85%
COc1ccc(S(=O)(=O)N2CCN(C(=O)c3cccc(Cl)c3)CC2)cc1 | inconclusive: 103%
COc1cc(-n2cnnn2)ccc1S(=O)(=O)N1CCOCC1 | inconclusive: 108%
Cc1ccc(NC(=O)/C=C\C(=O)NCC(=O)O)cc1 | inactive: 101%
O=C1C(C=NCc2ccncc2)=C(O)c2ccccc21 | inconclusive: 104%
C[C@H](C(=O)C=[N+]=[N-])N1C(=O)c2ccccc2C1=O | inconclusive: 106%
COc1ccc(/C=N/NC(=S)Nc2cccc(C(=O)O)c2)cc1 | inconclusive: 92%
CCCCOc1ccc(-c2nnn(CC(=O)c3c[nH]c4ccccc34)n2)cc1 | inconclusive: 108%
CC(C)CC(=O)Nc1ccc(C(=O)Nc2cccc(O)c2)cc1 | inconclusive: 87%
COc1ccc(CNC(=O)CN2C(=O)C3C4C=CC(C4)C3C2=O)cc1 (stereo not drawn) | inactive: 103%
CN(C)c1ccc(/C=c2/sc3n(c2=O)NC2(c4ccccc4)N(C)C(=O)N(C)C2(c2ccccc2)N=3)cc1 (stereo not drawn) | inactive: 105%
Cc1ccccc1CSc1nc(-c2ccccc2)cc(=O)[nH]1 | inactive: 102%
Cc1ccc(CSc2nnc(-c3ccncc3)n2CC2CCCO2)cc1 (stereo not drawn) | inactive: 103%

— PubChem BioAssay AID757 (NMMLSC, 2007)
